This passage reports nonsense suppression results from the RNAGym collection of RNA variant scans (doi:10.1101/gad.245936.114).

Variants at the background level are over-represented here.

B1: tRNA (parent)
chain: CUCUCGGUAGCCAAGUUGGUUUAAGGCGCAAGACUUUAAUUUAUCACUACGAAAUCUUGAGAUCGGGCGUUCGACUCGCCCCCGGGAGAUUUUUUCCUCGAGCAA

In the data set the parent is B1. The data set can be described thus: nonsense suppression (GFP-seq) (ratio to wild type); higher = more function; SUP4oc tRNA, yeast GFP reporter sort-seq. The method, boiled down: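 Nonsense suppression (GFPSEQ) is the median GFP/RFP ratio of each sorting bin, weighted by the variant's estimated share of cells in that bin and expressed relative to the unmutated parent tRNA. Yeast strains carried genome-integrated variants of an ochre-suppressor tRNA from a library with ~3% random mutations, plus a galactose-driven GFP ochre reporter and RFP, and were grown in raffinose/galactose medium containing 80 mg/L adenine. Cells were sorted into GFP/RFP bins, each bin was Illumina-sequenced (phred ≥30), and variants were kept only with ≥100 reads and ≥30 cells.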
For the variant CUCUCGGUAACCAAGUUGGUUUAAGGCGCAAGACUUUAAUUUAUCACUACGAAAUCUUGAGAUCGGGCGUUCGACUCGGCCCCGGGAGAUUUUUUCCUCGAGCAA, the nonsense suppression is no more than 0.026.

Turning to CUCUCGGUAGUCAAGUUGGUUUGAGGCGCAAGACUUUAAUUUAUCACUACGAAAUCUUGAGAUCGGGCGUUCGACUCGCCCCCGGGAGAUUUUUUCCUCGAGCAA, the nonsense suppression was no more than 0.026. As to CUCUCGAUAGCCAAGUUGGUUUAAGGCGCAAGACUUUAAUUUAUCACUACGAAAUCUUGAGACCGGGCGUUCGACUCGCCCAGGGGAGAUUUUUUCCUCGAGCAA, the nonsense suppression was no more than 0.026. As to CUCUCGGUAGCCAAGUUGGUAUAAGGGGCAAGACUUUAAUUUAUCACUACGAAAUCUUGAGAUCGGGCGUUCGACUCGCCCCCGGGAGAUUUUUUCCUCGAGCAA, the nonsense suppression is no more than 0.026. As for CUCUCGGUAGCCAAGUGGGUUGAAGGCGCAAGACUUUAAUUUAUCACUACGAAAUCUUGAGAUCGGGCGUUCGACUCGCCCCCGGUAGAUUUUUUCCUCGAGCAA, the nonsense suppression was no more than 0.026. For CUCCCGGUAGCCAAGUUGGUUUAAACCGCAAGACUUUAAUUUAUCACUACGAAAACUUGAGAUCGGGCGGUCGACUCGCCCCCGGGAGAUUUUUUCCUCGAGCAA, the nonsense suppression is no more than 0.026.

As to CUCUCGGAAGCCGAGUUGGUUUAAGGCGCAAUACUUUAAUUUAUCACUACGAAAUCUUGAGAUCGGGCGUUCGACUCGCCCCCGGGAGAUUUUUUCCUCGAGCAA, the nonsense suppression was no more than 0.026. As to CUCGCGGUAGCCAAGUUGGUUUAAGGCGCAAGAUUUUAAUUUAUCACUACGAAAUCUUGAGAUCGGGCGUUCGACUCGCCCCCGUGAGAUUUUUUCCUCGAGCAA, the nonsense suppression was no more than 0.026. Consider GUCUCGGUAGGCAAGUUGGUUUAAGGCGCAAGACUUUAAUUUAUCACUACGAAAUCUUGAGAUCGGGCGCUCGAAUCGCCCCCGGGAGAUUUUUUCCUCGAGCAA, for which the nonsense suppression was no more than 0.026.

Turning to CUCUCGGUAGCCACGUGGGUUUAAGGCGCAAGACUUUAAUUUAUCACUACGAACUAUUGAGAUCGGGCGUUCGACUCGCCCACGGGAGAUUUUUUCCUCGAGCAA, the nonsense suppression is no more than 0.026. The result for CUCUCGGUAGCCCAGUUGGUUUAAGGGGCAAGACUUUAAUUUAUCACUACGAAAUCAUGAGAUCGGGCGUUCGACUCGCCCCCUGGAGAUUUUUUCCUCGAGCAA reads no more than 0.026; that for CUCUCGGUAGCCAAGUUGGUGUAAGGCGCACGACUUUAAUUUAUCACUACGAAAUCUUGAGAUCGGGCGUUCGACUCGCCCCCGAGAGAUUUUUUCCUCGAGCAA, no more than 0.026. For the variant CUCUCGGUAGUCAAGUUGGUUUAAGGCGCAAGACUUUAAUUUAUCACUACGAAAUCUGGAGAACGGGCGUUCGGCUCGCCCCCGGGAGAUUUUUUCCUCGAGCAA, the nonsense suppression is no more than 0.026. For CUCUCGGUAGCCAAGUUGGUUUAAGGCGCAGGACUUUAAUUUAUCACUACGAAAUCUUGAGAUCGGGCGUUCGACUCGCCCCCGGGAUAUUUUUUCCUCGAGCAA, the nonsense suppression is no more than 0.026. As for CUCUCAGUAGCCAAGUUGGUUUAAGGCGCAAGACUUUAAUUUAUCACUACGAAAUCUGGAGAUCGGGCGUUCGACUCCCCCCCCGGAGAUUUUUUCCUCGAGCAA, the nonsense suppression was no more than 0.026. Consider CUCUCGGUAGCCACGUUGGGUUAAGGCGCAAGACUUUAAUUUAUCACUACGAAAUCUUGCGAUCGGGCGUUCGACUCGCCCCCGGGAGAUUUUUUCCUCGAGCAA, for which the nonsense suppression was no more than 0.026. For CUCUCGGUCGCCAAGUUGGUUUAAGGCGCAAGACUUUAAUUUAUCACUACGAAAUCUUGGGAUCGGGCGUUCUACUCGCCCCCGGGAGAUUUUUUCCUCGAGCAA, the nonsense suppression was no more than 0.026.

CUCUCGGUAGCCAAGAUGGUUUAAGGCGCAUGACUUUAAUUUAUCACUACGAAAUCUUCAGAUCGGGCGUUCGACUCGCCCCCGGUAGAUUUUUUCCUCGAGCAA: the nonsense suppression is no more than 0.026. With CUCUCGGCAGCCAAGUUGGUUUAAGGCGCAAGACCUUAAUUUAUCACUACGAAAUCUUGAGAUCGGGCGUUCGACUCGCCCCCGGGAGAUUUUUUCCUCGAGCAA, the nonsense suppression was no more than 0.026. Regarding CUCUCGGUAGCCAAGUUGGUUUAAGGCGCAAGACUUUAAUUUAUCACUACGAAAUCUUGAGAUCAGGCGUUCGACUCGCGCCCGGGAGAUUUUUUCCUCGAGCAA, the nonsense suppression is no more than 0.026.

CUCUCGGUAGCCAAGUUGGUUUAGGGCGCAAGUCUUUAAUUUAUCACUACGAAAUCUUCAGAUCGGGCGUUCGACUCGCCCCCGGGAGAUUUUUUCCUCGAGCAA: the nonsense suppression was no more than 0.026. On to CUGUCGGUAGCCAAGUUGGUUUCAGGCGCAAGACUUUAAUUUAUCACUACGAAAUCUUGAGAUCGGGCGUUCGACUCGCCCCCGGGAGAUUUUUUCCUCGAGCAA, for which the nonsense suppression was no more than 0.026. As for CGCUCGGUAGCCAAGUUGGUUUGAGGUGCAAGACUUUAAUUUAUCACUACGAAAUCUUGAGAUCGGGCGCUCGAAUCGCCCCCGGGAGAUUUUUUCCUCGAGCAA, the nonsense suppression is no more than 0.026.

As for CUCUCGGUAGCCAAGUUGGUGUAAGGCCCAAGACUUUAAUUUAUCACUACGAAAUCUUGAGAUCGGGCGUUCGACUCGCCCCCGGGAGAUUUUUUCCUCGAGCAA, the nonsense suppression turned out to be 0.211. The result for CUCUCGGUAGCCAAGUUGGUUGAAGGCGCAAGACUUUAAUUUAUCACUACGAACUCUUGAGAUCCGGCGUUCGACUCGCCCCCGGGAGAUUUUUUCCUCGAGCAA reads no more than 0.026; that for UUCUCGGUAGCCAAGUUGGUUUAAGGCGCAAGACUUUAAUUUAUCACUACGAAAUCUUGAGAUCGGGCGUUCGACUCGCCCCCCGGAGAUUUUUUCCUCGAGCAA, no more than 0.026; that for CUCUCGGUAGCCAAGUUGGUUUCAGGCGCAAGACUUUAAUUUAUCACUACGAAAUCUUGAUAUCGGGCGUUCGACUCGCCUCCGGGAGAUUUUUUCCUCGAGCAA, no more than 0.026.
